# Data: PMC6602471
# Some of the results follow. At the low end of the ranking, values are background and their order means little.
# Target: T1, ETS1 (UniProt P14921)
# T1 sequence: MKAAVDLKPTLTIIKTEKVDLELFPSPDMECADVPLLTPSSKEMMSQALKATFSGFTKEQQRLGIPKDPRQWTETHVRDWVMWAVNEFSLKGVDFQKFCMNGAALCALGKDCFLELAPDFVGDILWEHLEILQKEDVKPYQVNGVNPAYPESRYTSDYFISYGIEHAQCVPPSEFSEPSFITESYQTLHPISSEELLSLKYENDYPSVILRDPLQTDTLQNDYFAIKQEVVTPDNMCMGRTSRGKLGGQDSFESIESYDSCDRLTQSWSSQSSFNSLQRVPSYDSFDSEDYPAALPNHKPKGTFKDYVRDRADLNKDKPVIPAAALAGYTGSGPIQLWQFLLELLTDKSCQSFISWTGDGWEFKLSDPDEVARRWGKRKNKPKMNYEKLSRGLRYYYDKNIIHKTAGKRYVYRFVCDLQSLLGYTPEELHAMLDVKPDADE
# Assay: custom PBM
# Conditions: custom protein-binding microarray; buffer, salt, pH and temperature not stated; high values mean tight binding; double strand, one strand shown
row,Sequence,binding signal (log fluorescence intensity)
1,GCTGCTGCGGTGCATACCCCACCGGATGTGACCCCCGTCTTGATTCGCTTGACGCTGCTG,9.9
2,CTGGGACTTGACCCAACTCTGCCACGTGGGTTGTTTGTCTTGATTCGCTTGACGCTGCTG,8.01
3,TGTCGGGTAAGGGAATGTAGATCACGTGAGTGAAAAGTCTTGATTCGCTTGACGCTGCTG,8.18
4,GATTAATTTCTGCCCTTATTCGCACATGCCATAACAGTCTTGATTCGCTTGACGCTGCTG,8.29
5,TAAAGGGAAGACGGTTGTGGTAGTTCCGGGTATTATGTCTTGATTCGCTTGACGCTGCTG,8.5
6,TACTGACTTATATATGCGACTGCACATGAATAGACCGTCTTGATTCGCTTGACGCTGCTG,8.13
7,GATTAATTTCTGCCCTTATTCGCACGTTCCATAACAGTCTTGATTCGCTTGACGCTGCTG,8.23
8,TAAAGGGAAGACGGTTGTGGTATTTCCGGGTATTAAGTCTTGATTCGCTTGACGCTGCTG,10.6
9,TAAAGGGAAGACGGTTGTGGTAGTTCCGGGTATAAAGTCTTGATTCGCTTGACGCTGCTG,8.76
10,CGGACGTGTCGTAAACGTCGGATATCCGGTTCTTCTGTCTTGATTCGCTTGACGCTGCTG,11.7
11,GGAAAAAGGCCCAGGATAACACCGGAAGTGGGCTTAGTCTTGATTCGCTTGACGCTGCTG,12.2
12,TCCGGCTCCCAGCTCCACCCACTTCAGGCCTTGTAGGTCTTGATTCGCTTGACGCTGCTG,8.2
13,CAGCATAGGACTTCTTCCCTGAAGCAATTGCTAACCGTCTTGATTCGCTTGACGCTGCTG,8.28
14,GGAAAAAGGCCCAGGGTAACACCGGAAGTGGACTTAGTCTTGATTCGCTTGACGCTGCTG,11.9
15,CAGCATAGGACTTCTTCCCTGAAGCAATTCATAACCGTCTTGATTCGCTTGACGCTGCTG,8.23
16,TACTGACTTATATATGCGAATGAACATGAATAGACCGTCTTGATTCGCTTGACGCTGCTG,8.29
17,CTGGGACTTAACCCAACTCTGCCACGTGGGTCGTTTGTCTTGATTCGCTTGACGCTGCTG,8.05
18,TCCGGCTACCAGCTCCACCTACTTCAGGCCTTGTAGGTCTTGATTCGCTTGACGCTGCTG,8.19
19,TCCGGCTACCAGCTACACCCACTTCAGGCCTTGTAGGTCTTGATTCGCTTGACGCTGCTG,8.02
20,GATTTATTTCTGCCCTTATTCGCACGTGCCATAACAGTCTTGATTCGCTTGACGCTGCTG,8.13
21,TGGCGGGTAAGGGAATGTAGATCACGTGAATGAAAAGTCTTGATTCGCTTGACGCTGCTG,8.29

row,Sequence,binding signal (log fluorescence intensity)
1,TACTGACTTATATATGCGAAGGCACATGAATAGACCGTCTTGATTCGCTTGACGCTGCTG,8.01
2,TGTCGGGTAAGGGAATGTAGATCACGTGAATGACAAGTCTTGATTCGCTTGACGCTGCTG,8.22
3,TAAAGGGAAGACGGTTGTGGTAGTTCCGGGTATTTAGTCTTGATTCGCTTGACGCTGCTG,8.53
4,CAGCATAGGACTTCTTCCCTAAAGCAATTGATAACCGTCTTGATTCGCTTGACGCTGCTG,8.25
5,GCTGCTGCGGTGCATACCCCACCGGAAGTGACCCCGGTCTTGATTCGCTTGACGCTGCTG,11
6,CAGCATAGGACTTCTTCCCTGAAGCAATTGTTAACCGTCTTGATTCGCTTGACGCTGCTG,8.37
7,CTGGGACTTGACCCAACTCTGTCACGTGGGTCGTTTGTCTTGATTCGCTTGACGCTGCTG,8.23
8,GCTGCTGCGGTGCATACCCCACCGGATGTGACCCCTGTCTTGATTCGCTTGACGCTGCTG,10.1
9,TCCGGCCACCAGCTCCACCCACTTCAGGCCTTGTAGGTCTTGATTCGCTTGACGCTGCTG,8.2
10,TCCGGCAACCAGCTCCACCCACTTCAGGCCTTGTAGGTCTTGATTCGCTTGACGCTGCTG,8.2
11,TAAAGGGAAGACGGTTGTCGTAGTTCCGGGTATTAAGTCTTGATTCGCTTGACGCTGCTG,8.56
12,GATTAATTTCTGCCCTCATTCGCACGTGCCATAACAGTCTTGATTCGCTTGACGCTGCTG,8.11
13,CAGCATAGGACCTCTTCCCTGAAGCAATTGATAACCGTCTTGATTCGCTTGACGCTGCTG,8.07
14,TAAAGGGAAGACGGTTGAGGTAGTTCCGGGTATTAAGTCTTGATTCGCTTGACGCTGCTG,8.64
15,CAGCATAGGACTCCTTCCCTGAAGCAATTGATAACCGTCTTGATTCGCTTGACGCTGCTG,8.27
16,ATGTATAGGATCCCATCCAACACACGTGTTAAAATGGTCTTGATTCGCTTGACGCTGCTG,8.32
17,GTGTATAGGATCCCATCCAATACACGTGTTAAAATGGTCTTGATTCGCTTGACGCTGCTG,8.35
18,GGAAAAAGGCCCAGGGTACCACCGGAAGTGGGCTTAGTCTTGATTCGCTTGACGCTGCTG,11.6
19,TAAAGGGAAGACGGTTGTGGTTGTTCCGGGTATTAAGTCTTGATTCGCTTGACGCTGCTG,8.31
20,CAGCATAGGACTTCTTCCCTGAAGCAATTGATATCCGTCTTGATTCGCTTGACGCTGCTG,8.29
21,GTGTATAAGATCCCATCCAACACACGTGTTAAAATGGTCTTGATTCGCTTGACGCTGCTG,8.14

row,Sequence,binding signal (log fluorescence intensity)
1,CAGCATAGGACTTCTTCCCTGAAGGAATTGATAACCGTCTTGATTCGCTTGACGCTGCTG,8.32
2,TACTGACTTATGTATGCGAATGCACATGAATAGACCGTCTTGATTCGCTTGACGCTGCTG,8.33
3,CAGCCTAGGACTTCTTCCCTGAAGCAATTGATAACCGTCTTGATTCGCTTGACGCTGCTG,8.09
4,GCTGCTGCGGTGCATACCCCACCGGATGAGACCCCGGTCTTGATTCGCTTGACGCTGCTG,8.54
5,TAAAGGGAAGACGGATGTGGTAGTTCCGGGTATTAAGTCTTGATTCGCTTGACGCTGCTG,11.5
6,CAGCATAGGACTTCTTCCCTGAAGCCATTGATAACCGTCTTGATTCGCTTGACGCTGCTG,8.42
7,CTGGGACTTGACCCGACTCTGCCACGTGGGTCGTTTGTCTTGATTCGCTTGACGCTGCTG,8.49
8,TACTGACTTATATATGCGAATGCAGATGAATAGACCGTCTTGATTCGCTTGACGCTGCTG,8.15
9,CAGCATAGGACTTCTTCCCTGAAGCAATTGATAGCCGTCTTGATTCGCTTGACGCTGCTG,8.27
10,TACTGACTTATATATGCGAATGCACAAGAATAGACCGTCTTGATTCGCTTGACGCTGCTG,8.14
11,TAAAGGCAAGACGGTTGTGGTAGTTCCGGGTATTAAGTCTTGATTCGCTTGACGCTGCTG,8.32
12,CGGAAGTGTCGTAAACGTCGAATATCCGGTTCTTCTGTCTTGATTCGCTTGACGCTGCTG,12
13,CTGGGACTTGACCCAACTCTGGCACGTGGGTCGTTTGTCTTGATTCGCTTGACGCTGCTG,8.13
14,CAGCATAGGACTTCTTCCCTGAAGAAATTGATAACCGTCTTGATTCGCTTGACGCTGCTG,8.05
15,CTGGGACTTGAACCAACTCTGCCACGTGGGTCGTTTGTCTTGATTCGCTTGACGCTGCTG,8.34
16,GTGTATAGGATCCCATCCACCACACGTGTTAAAATGGTCTTGATTCGCTTGACGCTGCTG,8.29
17,CTGGGACTTGACTCAACTCTGCCACGTGGGTCGTTTGTCTTGATTCGCTTGACGCTGCTG,8.25
18,CGGAAGTGCCGTAAACGTCGGATATCCGGTTCTTCTGTCTTGATTCGCTTGACGCTGCTG,11.7
19,TAAAGGGAAGACGGTTATGGTAGTTCCGGGTATTAAGTCTTGATTCGCTTGACGCTGCTG,8.72
20,CGGATGTGTCGTAAACGTCGGATATCCGGTTCTTCTGTCTTGATTCGCTTGACGCTGCTG,11.8
21,CAGCATAGGACTTCTTCCCTGAAGCAATTGATAAGCGTCTTGATTCGCTTGACGCTGCTG,8.16

row,Sequence,binding signal (log fluorescence intensity)
1,GAGTAATTTCTGCCCTTATTCGCACGTGCCATAACAGTCTTGATTCGCTTGACGCTGCTG,8.27
2,GATTAAGTTCTGCCCTTATTCGCACGTGCCATAACAGTCTTGATTCGCTTGACGCTGCTG,8.33
3,CGGAAGTGTCGTAAACGTCGGATACCCGGTTCTTCTGTCTTGATTCGCTTGACGCTGCTG,8.31
4,GGAAAAAGGCCCAGGGTAACACCGAAAGTGGGCTTAGTCTTGATTCGCTTGACGCTGCTG,8.21
5,ATGGGACTTGACCCAACTCTGCCACGTGGGTCGTTTGTCTTGATTCGCTTGACGCTGCTG,8.26
6,TAAAGGGAAGACGGTTGTGGTAGTTCCGGCTATTAAGTCTTGATTCGCTTGACGCTGCTG,9
7,TGTCGGGTAAGGGAATGTAGATCACGTGAATTAAAAGTCTTGATTCGCTTGACGCTGCTG,8.29
8,TGTCGGGTAAGGGAACGTAGATCACGTGAATGAAAAGTCTTGATTCGCTTGACGCTGCTG,8.19
9,CGGAAGTGTCGTGAACGTCGGATATCCGGTTCTTCTGTCTTGATTCGCTTGACGCTGCTG,11.7
10,CAGCGTAGGACTTCTTCCCTGAAGCAATTGATAACCGTCTTGATTCGCTTGACGCTGCTG,8.44
11,CGGCATAGGACTTCTTCCCTGAAGCAATTGATAACCGTCTTGATTCGCTTGACGCTGCTG,8.15
12,TGTCGGGTAAGGGAATGTAGATCACGTCAATGAAAAGTCTTGATTCGCTTGACGCTGCTG,8.14
13,CAGCATAGGACTTCTTCCCTGAAGCAATTGGTAACCGTCTTGATTCGCTTGACGCTGCTG,8.23
14,TCCGGCTACCAGCTCCACCCACTTCAGGCCTTGTTGGTCTTGATTCGCTTGACGCTGCTG,8.13
15,CGTCGGGTAAGGGAATGTAGATCACGTGAATGAAAAGTCTTGATTCGCTTGACGCTGCTG,8.15
16,GTGTATAGGATCACATCCAACACACGTGTTAAAATGGTCTTGATTCGCTTGACGCTGCTG,8.22
17,GTGAATAGGATCCCATCCAACACACGTGTTAAAATGGTCTTGATTCGCTTGACGCTGCTG,7.87
18,TAAAGGGAAAACGGTTGTGGTAGTTCCGGGTATTAAGTCTTGATTCGCTTGACGCTGCTG,8.51
